Source: PubChem BioAssay AID485344 (National Center for Advancing Translational Sciences (NCATS), 2010)
“And” between values parts separate entries of the source, which are not always exact repeats. Equal values may be shown once. In all, about 340,000 compounds went through this assay and about 6,900 (2%) were called active. Cut-off read from the data, not from the text of the source: active = inhibition above about 30%; inactive = below that, where a call was filed. The list shows a part of the results, in another mix than the full data. Entries without a call were filed so in the source.
Note: 0% is about no effect.

What follows are molecules tested against D(2) dopamine receptor (Homo sapiens) (UniProt P14416) (assay: HTS Assay for Allosteric Antagonists of the Human D2 Dopamine Receptor: Primary Screen for Antagonists). Details: HEK293 TREx D2 cells, calcium flux, dopamine EC80; at 10 µM; stronger effect = higher value.
Sequence of UniProt P14416 (P14416 whole entry, looked up): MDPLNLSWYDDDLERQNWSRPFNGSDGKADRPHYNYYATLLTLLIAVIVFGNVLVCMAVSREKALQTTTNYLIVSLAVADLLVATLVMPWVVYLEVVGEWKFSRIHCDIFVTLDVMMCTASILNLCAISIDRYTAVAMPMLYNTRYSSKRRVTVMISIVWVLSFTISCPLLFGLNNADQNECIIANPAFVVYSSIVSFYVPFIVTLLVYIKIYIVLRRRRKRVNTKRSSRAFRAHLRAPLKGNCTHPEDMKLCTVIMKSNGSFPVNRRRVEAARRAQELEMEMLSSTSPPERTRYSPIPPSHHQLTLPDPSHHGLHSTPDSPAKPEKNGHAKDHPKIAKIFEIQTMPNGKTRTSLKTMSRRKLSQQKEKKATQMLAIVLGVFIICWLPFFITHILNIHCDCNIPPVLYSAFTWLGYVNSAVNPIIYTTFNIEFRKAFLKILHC
Summary of the method: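 Overnight-induced (tetracycline, 30 C) HEK293 T-REx cells carrying force-coupled D2 receive a no-wash calcium dye, then compound, then EC80 dopamine at 180 s; signals are read kinetically throughout.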
In the case of `CCN(CCCNC(=O)c1cc2c(=O)[nH]c3ccc(C)cc3c2s1)Cc1ccccc1`, the inhibition was -10.6%. `Cc1cccc(CNC(=O)c2ccc(Cn3c(SCc4ccccc4)nc4cccnc43)cc2)c1` gave an inhibition of 7.77%. For `CCc1ccc2oc(C(=O)Nc3nc(-c4ccccc4)ns3)c(C)c2c1`, the inhibition was -9.28%. For `Cc1ccc(OC(C)C(=O)NCC2(N3CCOCC3)CCCCC2)cc1C` (stereo not given), the inhibition was -1.22%. With `COc1ccccc1CNC(=O)CCC1N=C2c3ccccc3N=C(SCC(=O)NCCc3ccccc3)N2C1=O` (stereo not given) the inhibition was 2.75%. Molecule `Cc1c(C(=O)N(C)C)sc2c1c(=O)n(-c1ccc(F)cc1)c(=O)n2CC(=O)N(C)c1ccccc1` has an inhibition of -17.5%. For `COc1ccc(Cl)cc1NC(=O)c1nc(S(C)(=O)=O)ncc1N(Cc1ccc(C)cc1)Cc1ccco1`, the inhibition was -5.56%. Work on `Cc1ccc(C)c(NC(=O)Cn2c(=O)oc3cc(S(=O)(=O)NCc4ccccc4)ccc32)c1` yielded an inhibition of -8.2%. Molecule `Cc1cc2oc(C(=O)Nc3ccc(S(=O)(=O)Nc4onc(C)c4C)cc3)cc(=O)c2cc1C` has an inhibition of -8.97%. In the case of `COc1ccc(CN2CCN(Cc3cccc(Oc4ccccc4)c3)CC2)c(OC)c1OC`, the inhibition was active: 33.9%. With `Cc1ccc(Cn2c(=O)c3cccnc3n(Cc3ccc(F)cc3)c2=O)cc1` the inhibition was 8.4%. In the case of `CN(C)C(CNC(=S)Nc1cccc(Cl)c1)c1ccccc1` (stereo not given), the inhibition was active: 55%. With `COc1cccc(N2CCN(c3ncc4c(n3)CCN(Cc3ccc(Br)cc3)C4)CC2)c1` the inhibition was -0.436%. In the case of `Cc1cccc(Nc2nc3ccccc3n3c(N)nnc23)c1`, the inhibition was 2.08%. In the case of `Cc1cc2n(n1)CCCN2C(=O)Nc1cccc(C)c1C`, the inhibition was -12.6%. Work on `Cc1cccc(CSCCNC(=O)CN(c2ccccc2)S(=O)(=O)N(C)C)c1` yielded an inhibition of -4.54%. Work on `Cc1ccc(S(=O)(=O)c2cn(CC(=O)Nc3ccc4c(c3)OCO4)c3ccc(F)cc3c2=O)cc1` yielded an inhibition of -4.11%. Molecule `CCSC1=NC2(CCN(C(=O)NC3CCCCC3)CC2)N=C1c1ccc(C)c(C)c1` has an inhibition of -1.49%. `Cc1noc(C)c1S(=O)(=O)NCCc1csc2nc(-c3ccc(F)cc3)nn12` showed an inhibition of 15.8%. With `COc1ccc(CC(=O)NNC(=O)c2cc(C)oc2C)cc1OC` the inhibition was active: 32%. `Cc1ccc(NC(=O)[C@H](Cc2ccccc2)N2Cc3ccccc3C2=O)cc1` was tested, and the inhibition was -15.3%. `CCOC(=O)c1c(NC(=O)c2cc3ccccc3c(=O)o2)sc2c1CCCC2` gave an inhibition of -15.8%. `COc1ccc(OC)c(NC(=O)CCc2c(C)nc3c(-c4ccccc4)c(C)nn3c2C)c1` gave an inhibition of -12.7%. `CCc1cccc(NC(=O)c2ccc3c(=O)n4nc(Nc5ccccc5OC)sc4nc3c2)c1` gave an inhibition of 2.67%. With `COc1nc(Oc2ccc(=O)n(-c3ccccc3)n2)nc(N(C)C)n1` the inhibition was -13.9%. With `CCCN(CCC)CCNC(=O)c1cc(Sc2ccc(Cl)cc2)nc2ccccc12` the inhibition was 13.6%. For `COc1ccc(CNC(=O)C(=O)NCC(c2cccnc2)N2CCN(c3ccccc3F)CC2)cc1` (stereo not given), the inhibition was 22.7%. `COCCn1c(C)cc(C(=O)COC(=O)c2ccc[nH]c2=O)c1C` was tested, and the inhibition was active: 62.3%. Work on `COc1ccc(-c2[nH]ncc2C(=O)NCc2ccccc2OC)cc1` yielded an inhibition of 8.03%. In the case of `Cc1ccc(NC(=O)CN(C)S(=O)(=O)c2cccc3nsnc23)c(C)c1`, the inhibition was -1.25%. In the case of `COc1cc(C2C(=O)N(C3CCC(C)CC3)CC(=O)N2CCc2ccc(Cl)cc2)ccc1OC(C)C` (stereo not given), the inhibition was 23.5%. In the case of `CCOC(=O)Cc1csc(NC(=O)COc2ccc3ccccc3c2)n1`, the inhibition was active: 58.7%. With `COc1ccc(/C=N/NC(=O)c2nnn(-c3nonc3N)c2-c2cccc(OC)c2)cc1` the inhibition was active: 34.2%. With `Cc1cc(C)n(-c2nc3cc(Cl)c(Cl)cc3nc2Nc2c(C)cccc2C)n1` the inhibition was 5.68%. `COc1ccc(/C=C2\CCCc3c2nc2ccccc2c3C(=O)O)cc1OC` was tested, and the inhibition was active: 31%. `CCN(c1ccccc1)S(=O)(=O)c1nnc(NC(=O)COc2ccccc2F)s1` showed an inhibition of 22.8%. In the case of `Cn1cc(S(=O)(=O)N2CCCCC2)cc1C(=O)N1CCN(c2ccccc2F)CC1`, the inhibition was -4.3%. `COc1cccc(-c2csc(-c3c(N)c(C(=O)c4ccccc4)n4ccccc34)n2)c1` showed an inhibition of -0.43%. With `O=C(COc1ccc2ccccc2c1)NNC(=O)c1ccccc1` the inhibition was active: 47.6%. In the case of `CCOC(=O)c1ccccc1NC(=O)Cn1c(=O)n(CCCC(=O)NCc2ccc3c(c2)OCO3)c(=O)c2ccccc21`, the inhibition was 14.8%. Work on `CCOC(=O)C(=O)Nc1nnc2n1CCS2` yielded an inhibition of -17.2%. For `CCOc1ccc(Nc2ncnc3c2cnn3-c2ccc(F)cc2)cc1`, the inhibition was 8.95%. Work on `Cc1nc2c(C(=O)NCc3ccccc3Cl)cnn2c(C)c1Cc1ccccc1` yielded an inhibition of 2.43%. `COc1ccc(NC(=O)Cn2c(=O)n(Cc3ccccc3)c(=O)c3oc4ccccc4c32)cc1Cl` showed an inhibition of 10.4%. With `Cc1ccc(C)c(-n2cc(-c3ccccc3)nc2SCC(=O)Nc2ccccc2)c1` the inhibition was 4.14%. `Cc1nc(N2CCCC2)ncc1C(=O)N1CCN(c2ccc(Cl)cc2)CC1` showed an inhibition of 16.3%. `COc1ccc(CNC(=O)c2ccc(CSc3nc4ccncc4n3Cc3ccccc3F)cc2)cc1` showed an inhibition of 5.28%. `COc1ccc(NC(=O)C(C)n2nc(-c3cc(C)ccc3C)c3c(c2=O)CCCC3)cc1` (stereo not given) was tested, and the inhibition was -23.7%. `CCc1cccc(NC(=O)CSc2ncc3c(n2)-c2ccccc2N(CC)S3(=O)=O)c1` showed an inhibition of 9.69%. `CCC(=O)Nc1nnc(/C=C/c2ccc(OC)cc2)s1` was tested, and the inhibition was active: 35.4%. For `Cc1oc(-c2ccccc2)cc1C(=O)NC1CCN(Cc2ccccc2)CC1`, the inhibition was active: 69.4%. Work on `O=C(NCCc1ccccc1)C(=O)NCC(c1ccco1)S(=O)(=O)c1ccccc1` (stereo not given) yielded an inhibition of 17.6%. `COCCCNC(=O)CCC(=O)NNc1nc2ccccc2c2nc(-c3ccccc3)nn12` gave an inhibition of -2.72%. `CCOc1ccc(NC(=O)CSc2nnc(-c3ccncc3)n2-c2ccccc2)cc1` gave an inhibition of -1.1%. In the case of `COCCNC(=O)CSc1nc2cc3c(cc2c(=O)n1Cc1ccc(C(=O)NCCc2ccc(OC)c(OC)c2)cc1)OCO3`, the inhibition was 7.36%. With `Cc1ccc(N2C(=O)CS(=O)(=O)C23C(=O)N(C)c2ccccc23)cc1F` (stereo not given) the inhibition was -1.53%. With `Cc1ccc(C)c(Nc2cc(C(=O)NCCCN(C)C3CCCCC3)c3ccccc3n2)c1` the inhibition was 15.6%. `Cc1ccc(N2CCN(C(=O)c3c(C)oc4ncnc(N5CCOCC5)c34)CC2)c(C)c1` gave an inhibition of -13%. `COc1cc(NC(=O)NCC2CCN(Cc3ccc(C)cc3)CC2)cc(OC)c1OC` was tested, and the inhibition was -9.55% and active: 33.3%. With `Cc1ccc(CN2CCCn3nc(C(=O)NCc4cc(C)ccc4C)cc3C2=O)cc1` the inhibition was -10.9%. Molecule `Cc1ccc(CNC(=O)c2cnc3c(-c4ccccc4)c(C)nn3c2C)o1` has an inhibition of -6.34%. `COc1ccc(N(CC(=O)N/N=C/c2ccc(C(=O)O)cc2)S(=O)(=O)c2ccc(NC(C)=O)cc2)cc1` was tested, and the inhibition was active: 56.2%. In the case of `O=[N+]([O-])c1cc(-c2nc(-c3ccccn3)no2)ccc1NCc1ccccc1`, the inhibition was 7.67%. `O=C(O)CCc1nnc2cnc3ccccc3n12` was tested, and the inhibition was 0.459%. `Cc1ccc2ncc(C(=O)NC(C)c3ccccc3)c(=O)n2c1` (stereo not given) was tested, and the inhibition was 11.5%. `CC(=O)N1CCC2(CC1)OC(=O)C(C)=C2C(=O)NCc1cccc(Cl)c1` was tested, and the inhibition was -5.94%. For `COCCNCCCOc1ccc(Br)cc1Cl`, the inhibition was active: 33.2%. With `CN(Cc1ccccc1)C(=O)C1CCC(CNS(=O)(=O)c2ccc3c(c2)CCCC(=O)N3)CC1` (stereo not given) the inhibition was 7.69%. `Cc1ccc2nc(NC(=O)c3nc(SCc4ccccc4C)ncc3Cl)sc2c1` was tested, and the inhibition was -6.18%. With `Cc1ccc(N2CCN(C(=O)C3CCN(c4ncnc5c4nc4n5CCCCC4)CC3)CC2)c(C)c1` the inhibition was 5.4%. Molecule `COCCCNC(=O)c1cnn(-c2ccc(F)cc2F)c1C1CCNCC1` has an inhibition of -8.59%. `Clc1ccc(Cl)c(OCCCCN2CCCCC2)c1` was tested, and the inhibition was active: 86.3%. `O=C(Cn1c(=O)oc2cc(S(=O)(=O)NCc3ccccc3)ccc21)NCc1ccccc1Cl` showed an inhibition of -17.5%. `Nc1ccc2nc(-c3ccc(O)cc3)sc2c1` was tested, and the inhibition was -4.13%. Work on `Cc1ccc2scc(N3CCCCC3)c(=O)c2c1` yielded an inhibition of 0.646%. For `CC(C(=O)Nc1ccc([N+](=O)[O-])cc1)N1CCN(C/C=C/c2ccccc2)CC1` (stereo not given), the inhibition was active: 52.7%. In the case of `COc1ccc(NC(=O)CC2C(=O)N(c3ccc(F)cc3)C(=O)N2CCc2sccc2C)cc1` (stereo not given), the inhibition was 6.45%. `CCn1ccc2cc(S(=O)(=O)N3CCC(C(=O)NCCc4ccccc4)CC3)ccc21` showed an inhibition of 18.9%. In the case of `COc1cc(OC)c(NC(=O)c2c(C)oc3nc(C)nc(N4CCOCC4)c23)cc1Cl`, the inhibition was 5.27%. With `O=C(NCCN1CCN(C(=O)c2ccc(F)cc2)CC1)c1ccc(F)cc1` the inhibition was active: 64%. `COc1cccc(-n2cc(C(=O)OCc3ccc(Cl)cc3)c3ccccc3c2=O)c1` showed an inhibition of 26.1%. `CCOc1ccc(-n2c(=O)c3c(C)c(C)sc3n(CC(=O)N3CCC(C)CC3)c2=O)cc1` was tested, and the inhibition was 2.14%. Molecule `Cc1cccc(CNC(=O)c2ccc(C)c(-n3c(C)nc4cccnc43)c2)c1` has an inhibition of -0.298%. In the case of `Cc1ccsc1C(=O)NNC(=O)c1csc(N2CCOCC2)n1`, the inhibition was active: 31.6%. `O=C(NCc1ccccc1Cl)c1ccc(Cn2c(=O)c3cccn3c3cccnc32)cc1` showed an inhibition of 10.3%. With `Cc1cc(C)c(NC(=O)CCCn2c(C)c3cnn(-c4ccccc4)c(=O)c3c2C)c(C)c1` the inhibition was -3.46%. `Cc1ccc(CCNC(=O)c2cn(C)c3ccc(S(=O)(=O)N4CCC(C)CC4)cc3c2=O)cc1` gave an inhibition of -4.19%. `CC(C)CC(=O)Nc1nnc(SCc2cc(=O)n3ccccc3n2)s1` showed an inhibition of -7.21%. Work on `COc1cc(OC)cc(-c2nc3nc(C)c(CCC(=O)NCCC(C)C)c(C)n3n2)c1` yielded an inhibition of 20.3%. `O=c1c(S(=O)(=O)c2cccc(Cl)c2)cn(Cc2ccccc2)c2cc(N3CCCCC3)c(F)cc12` was tested, and the inhibition was -18.1%. Molecule `CCN(CC)S(=O)(=O)c1ccc2[nH]cc(C(=O)NCCc3ccccc3)c(=O)c2c1` has an inhibition of -1.37%. `COc1ccccc1NC(=O)CN1C(=O)CSc2ccc(S(=O)(=O)N3CCCC3)cc21` was tested, and the inhibition was -1.82%. `CSCCC(NS(=O)(=O)c1ccc2c(c1)oc(=O)n2C)C(=O)N1CCN(c2ccc(C(C)=O)cc2)CC1` (stereo not given) gave an inhibition of -10.1%. Work on `CCc1ccc(-n2c(=O)c3cccnc3n2CC(=O)Nc2cc(OC)ccc2OC)cc1` yielded an inhibition of -1.4%. `CCc1ccccc1NC(=O)c1ccc(=O)n(Cc2ccc(F)cc2)c1` showed an inhibition of -3.98%.
